Reference: ChEMBL document CHEMBL1157539, “Thousands of chemical starting points for antimalarial lead identification” (Nature, 2010)
Whole data set: some 13,000 compounds, median “IFI” near 4, cut for the highest 2% near 17. The list shows a part of the results.

Assay: GSK_TCMDC: Inhibition Frequency Index (IFI). The number of non-kinase HTS assays where a compound showed > 50 % inhibition, expressed as a percentage of the number of such assays in which the compound was tested (-0 is zero)
Format: functional

| Structure (SMILES) | IFI |
| --- | --- |
| CC(C)N1CCN(C(=O)c2ccc(CN(C)CCCN3CCN(c4cccc(Cl)c4Cl)CC3)s2)CC1 | 16.9% |
| Cc1cccc2nc(-c3cccc(-c4cccc(NC(=O)Cc5ccc[n+]([O-])c5)c4)c3)[nH]c12 | 0.9% |
| Cc1cccc2sc(N(CCCn3ccnc3)C(=O)C=Cc3cccs3)nc12 | 4.08% |
| CN(C)c1ccc(C=CC(=O)NC(=O)c2ccccc2O)cc1 | 8.33% |
| COc1ccc(CNCc2ccc(-c3ccc(-c4nc5cc(C(F)(F)F)ccc5[nH]4)cc3)cc2)cc1 | 16.2% |
| CCOC(=O)c1ccc(N2CCCCC2)c(NC(=O)C(Cl)(Cl)Cl)c1 | 1.47% |
| COc1cc2nc(N3CCC(CNC(=O)c4ccc(-c5ccc(-c6noc(C)n6)cc5C)cc4)CC3)nc(N)c2cc1OC | 7.89% |
| C[C@H](Nc1nc(C(Oc2ccccc2)c2ccccc2)nc2[nH]ncc12)c1ccccc1 (some centres undefined) | 5.56% |
| N#Cc1ccc(N2C[C@@H](OCc3ccccc3)C[C@H]2C(=O)NCCC(c2ccccc2)c2ccccc2)c2ccccc12 | 0.72% |
| Cc1cc(=NN=Cc2ccc(F)cc2)c2ccc(C(F)(F)F)cc2[nH]1 | 1.49% |
| O=C(/C=C/c1ccc(Cl)c(Cl)c1)N1CCC(CN2CCC(Cc3c[nH]c4ccccc34)CC2)CC1 | 0.72% |
| c1cc2c3c(cccc3c1)NC(CCCCCCCCC1=Nc3cccc4cccc(c34)N1)=N2 | 2.33% |
| C=C(C)C1CC=C(CN2CCC(N3CCc4cc(NC(=O)c5cc(C)on5)ccc43)C2)CC1 (centres undefined) | 0% |
| Nc1nonc1-c1nc2c(-c3cccc(Cl)c3)nccc2n1CCCNC(=O)Cc1ccc(Cl)cc1 | 0.81% |
| Cc1cc(N[C@@H](Cc2ccccc2)C(=O)Nc2ccccc2)nc(NCCc2ccccn2)n1 | 4.55% |
| O=C1CCCN1CCCNCc1cccc(-c2ccc(-c3nc4cc(C(F)(F)F)ccc4[nH]3)cc2)c1 | 5.88% |
| O=C(Nc1ccc2c(c1)CCN2C1CCN(Cc2csc3ccccc23)C1)c1ccco1 (centres undefined) | -0% |
| O=[N+]([O-])c1cccc(-c2nc3cc(C4=NC5CCCCC5N4)ccc3[nH]2)c1 (centres undefined) | 1.4% |
| CCCCNCCOc1ccc(-c2nc(-c3ccccc3)c(-c3ccccc3)[nH]2)cc1 | 5.51% |
| c1ccc(C2CCN(Cc3ccc(-c4c[nH]c5nc(NC6CCCC6)ncc45)cc3)CC2)cc1 | 3.51% |
| Cc1ccc(NC(=O)c2ccc3ncccc3c2)cc1OC1CCN(Cc2ccc(F)cc2)C1 (centres undefined) | 3.28% |
| CC(C)CC(NC(=O)c1ccc(F)cc1)C(=O)N[C@H](/C=N/N1CCNC1=O)CC(C)C (some centres undefined) | 1.8% |

| Structure (SMILES) | IFI |
| --- | --- |
| FC(F)(F)c1ccc2[nH]c(-c3ccc(-c4ccc(CNCCN5CCNCC5)cc4)cc3)nc2c1 | 14.7% |
| Oc1ccc2nc(NCCCc3ccccc3)nc(NCCCc3ccccc3)c2c1 | 10.9% |
| CN(C)CCOc1ccc(NC(=O)Nc2ccnc3c(Br)cccc23)cc1Cl | 2.08% |
| COC(=O)c1ccc2nc(-c3cc(-c4cccc(-c5ccccc5)c4)cnc3N)[nH]c2c1 | 2.94% |
| CN1CCN(c2ccnc3ccc(NC(=O)Cc4ccc(OCc5ccccc5)cc4)cc23)CC1 | 2.19% |
| CN(Cc1ccccc1)C(=O)c1nn(CCCN2CCC(N3CCCC3)CC2)cc1-c1ccc(Cl)c(Cl)c1 | 10.7% |
| COc1cc(NC(=O)c2ccc3oc4ccccc4c3c2)ccc1OCCN1CCCCC1 | 3.7% |
| Cc1ccccc1C1CCN(C2CCC(NC(=O)c3ccc(-c4ccccc4)s3)CC2)CC1 (centres undefined) | 5.36% |
| O=C(Nc1cccc(-c2cccc(CN3CCCC3)c2)c1)c1ccc(Cl)cc1 | 5.66% |
| CCCC(C)Nc1nc(C)cc(N[C@@H](Cc2ccccc2)C(=O)NCc2ccc(C)cc2)n1 (some centres undefined) | 11.6% |
| COc1cccc(C2C(C(=O)Nc3ccccc3)=C(C)N=c3sc(=Cc4ccc(O)cc4)c(=O)n32)c1 (centres undefined) | 1.99% |
| O=C(Nc1ccccc1Br)c1cn(-c2ccccc2)nc1-c1cccc([N+](=O)[O-])c1 | 2.44% |
| CCc1nc2nc(C)cc(Nc3ccc4c(c3)OCCO4)n2n1 | 0% |
| Cn1nc(-c2ccc(CN[C@@H]3CCc4ccc(O)cc43)cc2)c2cnc(NCCCN3CCCC3)nc21 | 7.14% |
| O=C(c1cc(C(=O)NC2CCCCC2)c(=O)n(C2CCCCC2)c1)c1cc(F)ccc1O | 19.4% |
| CC(=O)N[C@H](C(=O)Nc1ccc(-c2ccc(-c3nc4cc(C(F)(F)F)ccc4[nH]3)cc2)cc1)C(C)C | 3.6% |
| CN(C)CCN(C)Cc1ccc(-c2cccc(NC(=O)c3ccc(Cl)cc3)c2)cc1 | 3.88% |
| O=C(NCCc1ccccc1F)c1cc(Br)cc(N2CCN(c3ccncc3)CC2)c1 | 6.45% |
| COC(=O)c1ccc2c(c1)nc(Nc1cccc(F)c1)n2CC(O)c1ccccn1 (centres undefined) | 0% |
| O=C(NCCCCN1CCC(c2ccc3c(c2OCC2COCO2)CCCC3)CC1)c1ccc(-c2ccc(C(F)(F)F)cc2)cc1 (centres undefined) | 8.85% |
| Cc1[nH]c(C)c(-c2ccc(OCc3cc(C(F)(F)F)cc(C(F)(F)F)c3)nc2)c(=O)c1Br | 5.36% |
| COc1ccc(NC(=O)c2csc(-c3cc(NC(=O)c4ccnc(N5CCCC5)c4)ccc3C)c2)cc1N1CCN(C)CC1 | 4.88% |
